PubChem BioAssay AID298 (DTP/NCI, 2004)
Inconclusive results are not listed. A number of entries come with more than one value. The list is limited to them. The source may hold further records. The values listed for one entry repeat one measurement in other runs, samples, wells, individuals or studies.

Test system: MX-1 breast xenograft, intrarenal, nude mice, tumor weight
Assay: NCI In Vivo Anticancer Drug Screen. Data for tumor model Human Mammary Carcinoma MX-1 Xenograft (intrarenal inoculation) in NU/NU BALB/C (nude) mice
Conditions: endpoint: mean tumor weight change, schedule: Q04DX003 (ip), higher = larger tumour
Procedure: The antitumor activity of compounds was measured in mice bearing transplantable tumors. Survival or tumor size were measured and the results are expressed as the measurement made in the treated group (T) divided by the measurement made in the vehicle treated control group (C). The tumor model used in this assay is Human Mammary Carcinoma MX-1 Xenograft (intrarenal inoculation) in NU/NU BALB/C (nude) mice

`CC[C@@H](C)[C@H]([C@H](CC(=O)N1CCC[C@@H]1[C@@H](OC)[C@H](C)C(=O)N[C@H](Cc1ccccc1)c1nccs1)OC)N(C)C(=O)[C@H](NC(=O)[C@@H](C(C)C)N(C)C)C(C)C` was tested, and the T/C (dose: 6.25 micrograms/kg/injection, vehicle: saline + alcohol) was 69 % of control and 178 % of control.

`COc1cc([C@@H]2c3cc4c(cc3[C@@H](OC3OC5COC(C)OC5C(O)C3O)[C@H]3COC(=O)[C@H]23)OCO4)cc(OC)c1O` (some centres not stated) was tested, and the T/C (dose: 8.0 mg/kg/injection, vehicle: saline) was 38 % of control and 91 % of control, the T/C (dose: 16.0 mg/kg/injection, vehicle: saline) was 17 % of control, 20 % of control, 102 % of control and the T/C (dose: 32.0 mg/kg/injection, vehicle: saline) was 4 % of control, 5 % of control, 96 % of control.

In the case of `Nc1nc2ncn(O)c2c(=O)[nH]1`, the T/C (dose: 12.5 mg/kg/injection, vehicle: water) is reported as 53 % of control and 103 % of control.

For `Cc1ccc2c(c1)n([O-])c1cc(Cl)ccc1[n+]2=O`, the T/C (dose: 75.0 mg/kg/injection, vehicle: saline with Tween-80) was 81 % of control and 107 % of control and the T/C (dose: 600.0 mg/kg/injection, vehicle: saline with Tween-80) was 29 % of control and 61 % of control.
